Data set [1] deals with the molecule itself. As to the kind of experiment: cross-linking; 4 µM sTNF and/or S100 protein (sTNF to S100 1:0, 0:1, 1:0.5, 1:1, 1:2), 20 mM EDAC and 5 mM sulfo-NHS, 25 °C, 1.5 h; 10 mM HEPES, 150 mM NaCl, pH 7.4 with 1 mM CaCl2; SDS-PAGE with silver staining.
Data set [2] addresses Recombinant human S100A6 (human, UniProt P06703). As to the kind of experiment: SPR; ligand (50 μg/mL sTNF or TNF-β) immobilised on a ProteOn GLH chip by amine coupling; chip flushed with running buffer for two days and several times with 10 mM glycine pH 3.3 to dissociate sTNF multimers (monomeric sTNF); Ca2+-loaded S100 protein as analyte, 10 nM–2 µM; 25 °C; 10 mM HEPES, 150 mM NaCl, 1 mM CaCl2, 0.05% TWEEN 20, pH 7.4; heterogeneous ligand model. As to conditions: both partners purified.

Bounds are passed on as bounds.

B1: Recombinant human sTNF (soluble form of tumor necrosis factor) (ligand)
chain: not shown
notes: additional N-terminal methionine, stated in words; tumor necrosis factor, human, soluble form (157 residues), […] of UniProt entry […]; Monomeric on the SPR chip after long flushing and glycine pH 3.3 washes; multimeric in solution in the fluorimetric titrations and cross-linking; also called TNF-α; TNF ligand superfamily member 2; source: bought: Prospec-Tany Technogene (catalog # CYT-223), …
By Kd is commonly meant the constant that tells how readily two partners part at equilibrium. For the molecule B1, in data set [1], the binding result is “binds”. The Kd in data set [2] was over 100 µM.

For the origin of these results see article PMC9783754 (International Journal of Molecular Sciences, 2022).
